This is one part of the list. These are noisy estimates, calculated here from bound and input reads.
Target: T1, Pho4 (S. cerevisiae) (UniProt P07270)
T1 sequence: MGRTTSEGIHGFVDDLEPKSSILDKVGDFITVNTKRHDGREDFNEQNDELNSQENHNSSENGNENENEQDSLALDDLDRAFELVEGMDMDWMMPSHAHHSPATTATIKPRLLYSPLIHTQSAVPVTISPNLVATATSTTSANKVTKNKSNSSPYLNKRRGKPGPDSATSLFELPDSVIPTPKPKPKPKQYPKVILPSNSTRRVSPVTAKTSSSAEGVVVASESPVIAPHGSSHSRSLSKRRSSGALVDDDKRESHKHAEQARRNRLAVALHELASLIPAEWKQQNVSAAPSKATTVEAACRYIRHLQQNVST
Test: relative binding free energy (BET-seq); higher = weaker binding
Details: reference: library average

Sequence | relative binding free energy [kcal/mol]
GTATACACGTGATTGG | 0.22
TAGTACACGTGAAATG | 0.4
GGGGACACGTGGCAGG | -0.06
AACGACACGTGGTTGG | 0.05
TGCGTCACGTGTCAGG | 0.04
AGTGACACGTGGTGTA | -0.18
TTCAGCACGTGGAGGT | 0.06
GAAGTCACGTGTTACG | 0.41
GGGGCCACGTGAGGCA | 0.08
TTAGACACGTGGTTGA | -0.07
GTGATCACGTGATCTG | 0.29
GGGTTCACGTGTAAGT | 0.21
AGTGTCACGTGTTGCT | 0.02
GTTGCCACGTGATGTA | 0.12
ATTATCACGTGTTTTG | 0.12
TAGATCACGTGCTGGA | 0.1
GGTTTCACGTGAAAGT | 0.55
GACTTCACGTGGGTTG | 0.33
CTGAGCACGTGATAGT | -0.01
TTATTCACGTGCAGTG | 0.08
TTAGACACGTGAAGTA | 0.29
TTACGCACGTGTTGGT | -0.02
TGAGGCACGTGTGTTG | -0.1

Sequence | relative binding free energy [kcal/mol]
GTTTGCACGTGGACAT | 0.04
GGTAACACGTGGAGTA | -0.03
ATGAGCACGTGAGTTG | 0.05
CAAGGCACGTGGAGTG | -0.17
TGGTACACGTGTAGTA | 0.07
TGTATCACGTGGAAGA | 0.07
TCGTCCACGTGGTTTT | 0.11
TTGTGCACGTGCTGTA | -0.15
TGTATCACGTGCGATT | 0.28
TTGGGCACGTGAGTTT | 0.16
ATCATCACGTGGTTAT | 0.1
CTAAGCACGTGTAAGG | 0.08
AAAGGCACGTGATTAG | 0.07
TGTAGCACGTGCTCGG | -0.1
CAATTCACGTGGTGTT | 0.15
AAGGCCACGTGGGGTA | -0.24
TGGTGCACGTGTTATT | 0.02
TGTGGCACGTGCTAGT | -0.15
TCTAGCACGTGATGGG | 0.16
TGTAGCACGTGGGCAT | -0.26
TATGGCACGTGCTGAG | -0.06
TTATGCACGTGATGTC | 0.17
GAGAGCACGTGAGGGC | 0.16

Sequence | relative binding free energy [kcal/mol]
GCTGACACGTGTGGTA | 0.13
TGCGACACGTGATAGT | 0.15
CAGTTCACGTGAGAGT | 0.48
TGGCGCACGTGTGTAA | -0.06
AGGGTCACGTGATCTT | 0.19
TTATTCACGTGGTGTA | 0.14
ATTATCACGTGTAAAT | 0.26
AGATTCACGTGGGACG | 0.13
ACTGCCACGTGTTTGG | 0.06
GATAACACGTGCGGGG | 0.02
TAATTCACGTGTTGTT | 0.34
CTTGGCACGTGAGCTG | 0.12
AGCGCCACGTGGTGGG | -0.3
GTGAGCACGTGTGATT | 0.04
AATTTCACGTGGAAAT | 0.29
CGGGGCACGTGTCGGG | -0.1
GTAATCACGTGACGGT | 0.22
AGTGTCACGTGAGTTT | 0.28
TATCTCACGTGTGTGT | 0.12
TCGGTCACGTGCTAGG | 0.02
TAATTCACGTGTAGGA | 0.36
AATGACACGTGGGTAG | 0.01
TATAGCACGTGAGTAT | 0.1

Sequence | relative binding free energy [kcal/mol]
TTGTTCACGTGGTTGC | 0.21
GGTATCACGTGGACGT | 0.06
AGTTCCACGTGTTATT | 0.15
CTTGCCACGTGGATGG | -0.07
TAGGCCACGTGGTTGC | -0.07
AGTGGCACGTGGTTGT | -0.04
TAGGTCACGTGCATAA | 0.03
TTCTGCACGTGAGTCG | 0.36
CGGGACACGTGGTTGC | 0.01
GGGCGCACGTGCGCTG | -0.1
ACAGGCACGTGGGGAT | -0.2
TTAGTCACGTGGGCAA | 0.02
TTGTACACGTGGGTGC | -0.09
AAGTGCACGTGAGAGT | 0.14
GCGGGCACGTGGTGAG | -0.02
CGGTTCACGTGACGTG | 0.24
ACGGGCACGTGCTGGT | -0.25
CAGGTCACGTGCGGTG | 0.13
GTTCGCACGTGATTTT | 0.1
TTGGACACGTGATGTA | 0.06
ATGTGCACGTGTTTGC | -0.19
TTTTGCACGTGCGAGG | -0.05
GCGTTCACGTGGCGTT | 0.18

Sequence | relative binding free energy [kcal/mol]
GTGGACACGTGGGACT | -0.09
TCAATCACGTGGAGGT | 0.3
TGGGACACGTGGTTGA | 0.02
GGCGGCACGTGGAGAT | -0.01
ATTGTCACGTGAGGGA | 0.18
AGGGCCACGTGAGTTA | 0.21
TGAGGCACGTGTGAGT | -0.08
AGTTTCACGTGGGTGA | 0.23
TGGTTCACGTGAGCGG | 0.41
GTTATCACGTGGAGGC | 0.28
TTGTTCACGTGTCCTT | 0.15
TCATTCACGTGGGGAA | 0.24
CGGTGCACGTGTGCTG | 0.08
CGGCTCACGTGAGGTG | 0.5
AGTGACACGTGGGGCA | -0.17
CTTGGCACGTGGGTAA | -0.18
GTGTGCACGTGTACGT | 0.1
AGGAACACGTGGGAGT | -0.06
TGTTTCACGTGTTTTC | 0.29
AATGTCACGTGTGGCT | 0.11
ATTTGCACGTGAGTCG | 0.36
ACGGGCACGTGGGATG | -0.28
TGTCACACGTGGAAGT | 0.13

— the BET-seq Pho4 binding data (Le et al. 2018)
